Experimental data taken from the supplement of paper PMC4967469.

What was measured:
Test in all cases: Viability of human cancer cell lines after 72 h of drug (GDSC screen)
Docetaxel = compound: CC(=O)O[C@@]12CO[C@@H]1C[C@H](O)[C@@]1(C)C(=O)[C@H](O)C3=C(C)[C@@H](OC(=O)[C@H](O)[C@@H](NC(=O)OC(C)(C)C)c4ccccc4)C[C@@](O)([C@@H](OC(=O)c4ccccc4)[C@H]21)C3(C)C [Docetaxel]; settings: top dose 0.0125 µM
Method: (§1)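 Human cancer cell lines in 384-well plates, medium with 10% serum, drug for 72 h over a 256-fold dose range (nine 2-fold or five 4-fold steps up to the top dose). Adherent lines were fixed and stained with the nucleic acid dye Syto60, suspension lines read with resazurin; signal relative to control wells, capped at 0 and 100%. One two-parameter sigmoid per drug and line, fitted in a mixed model over all curves with the slope shared within a line.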

AMG-706 = compound: CC1(C)CNc2cc(NC(=O)c3cccnc3NCc3ccncc3)ccc21 [AMG-706]; settings: top dose 2 µM; top dose inferred
Method: as §1

Cyclopamine = compound: CC1=C2C[C@H]3[C@@H](CC=C4C[C@@H](O)CC[C@@]43C)[C@@H]2CC[C@]12O[C@@H]1C[C@H](C)CN[C@H]1[C@H]2C [Cyclopamine]; settings: top dose 16 µM; top dose inferred
Method: as §1

JNK Inhibitor VIII = compound: CCOc1nc(NC(=O)Cc2cc(OC)ccc2OC)cc(N)c1C#N [JNK Inhibitor VIII]; settings: top dose 10 µM; top dose inferred
Method: as §1

NSC-207895 = compound: CN1CCN(c2ccc([N+](=O)[O-])c3no[n+]([O-])c23)CC1 [NSC-207895]; settings: top dose 20 µM; top dose inferred
Method: as §1

FTI-277 = compound: COC(=O)[C@H](CCSC)NC(=O)c1ccc(NC[C@@H](N)CS)cc1-c1ccccc1 [FTI-277]; settings: top dose 1.024 µM; top dose inferred
Method: as §1

YM155 = compound: COCC[n+]1c2c(n(Cc3cnccn3)c1C)C(=O)c1ccccc1C2=O [YM155]; settings: top dose 5.12 µM
Method: as §1

OSI-906 = compound: C[C@]1(O)C[C@@H](c2nc(-c3ccc4ccc(-c5ccccc5)nc4c3)c3c(N)nccn32)C1 [OSI-906]; settings: top dose 2.56 µM; top dose inferred
Method: as §1

SB-715992 = compound: Cc1ccc(C(=O)N(CCCN)[C@@H](c2nc3cc(Cl)ccc3c(=O)n2Cc2ccccc2)C(C)C)cc1 [SB-715992]; settings: top dose 0.128 µM; top dose inferred
Method: as §1

JQ1 = compound: Cc1sc2c(c1C)C(c1ccc(Cl)cc1)=N[C@@H](CC(=O)OC(C)(C)C)c1nnc(C)n1-2 [JQ1]
Method: as §1

Belinostat = compound: O=C(/C=C/c1cccc(S(=O)(=O)Nc2ccccc2)c1)NO [Belinostat]; settings: top dose 20 µM; top dose inferred
Method: as §1

CGP-60474 = compound: OCCCNc1cc(-c2ccnc(Nc3cccc(Cl)c3)n2)ccn1 [CGP-60474]; settings: top dose 0.256 µM; top dose inferred
Method: as §1

JNJ-26854165 = compound: c1ccc2c(CCNc3ccc(Nc4ccncc4)cc3)c[nH]c2c1 [JNJ-26854165]; settings: top dose 10 µM
Method: as §1

[1] = top dose 1 µM, screen: GDSC drug entry 1218, top dose inferred
[2] = top dose 2.56 µM, screen: GDSC drug entry 163

Cell Line	AUC (Docetaxel)	IC50 (Docetaxel) [nM]	AUC (AMG-706)	IC50 (AMG-706) [nM]	AUC (Cyclopamine)	IC50 (Cyclopamine) [µM]	AUC (JNK Inhibitor VIII)	IC50 (JNK Inhibitor VIII) [µM]	AUC (NSC-207895)	IC50 (NSC-207895) [µM]	AUC (FTI-277)	IC50 (FTI-277) [nM]	AUC (YM155)	IC50 (YM155) [nM]	AUC (OSI-906)	IC50 (OSI-906) [nM]	AUC (SB-715992)	IC50 (SB-715992) [nM]	AUC (JQ1; [1])	IC50 (JQ1; [1]) [nM]	AUC (JQ1; [2])	IC50 (JQ1; [2]) [nM]	AUC (Belinostat)	IC50 (Belinostat) [nM]	AUC (CGP-60474)	IC50 (CGP-60474) [nM]	AUC (JNJ-26854165)	IC50 (JNJ-26854165) [µM]
NCI-H2141 (small cell lung carcinoma, suspension)	0.971	> 12.5	0.99	> 2000	0.991	> 16	0.991	> 10	0.921	> 20	0.991	> 1020	0.076	< 20	0.883	> 2560	0.87	113	0.99	> 1000	0.941	> 2560	0.575	1990	0.788	109	0.988	> 10
MC-CAR (haematopoietic neoplasm, suspension)	0.84	7.31	0.97	> 2000	0.978	> 16	0.971	> 10	0.913	> 20	0.964	> 1020	0.066	< 20	0.964	> 2560	0.683	24.3	0.983	> 1000	0.663	429	0.236	239	0.699	54	0.932	> 10
NCI-H1395 (lung adenocarcinoma, adherent)	0.719	4.05	0.982	> 2000	0.963	> 16	0.974	> 10	0.963	> 20	0.976	> 1020	0.282	62.3	0.982	> 2560	0.925	> 128	0.97	> 1000	0.982	> 2560	0.589	2370	0.739	98.7	0.836	> 10
JVM-3 (lymphoid neoplasm, suspension)	0.698	2.83	0.98	> 2000	0.987	> 16	0.983	> 10	0.951	> 20	0.987	> 1020	0.081	< 20	0.987	> 2560	0.982	> 128	0.795	471	0.987	> 2560	0.324	401	0.954	> 256	0.718	2.63
DU-4475 (breast, suspension)	0.937	> 12.5	0.99	> 2000	0.992	> 16	0.981	> 10	0.977	> 20	0.959	> 1020	0.261	78.2	0.947	> 2560	0.776	41.6	0.983	> 1000	0.635	349	0.271	324	0.78	85.9	0.874	6.75
UACC-257 (melanoma, adherent)	0.856	> 12.5	0.968	> 2000	0.977	> 16	0.967	> 10	0.793	11.8	0.944	> 1020	0.037	< 20	0.97	> 2560	0.947	> 128	0.962	> 1000	0.807	1720	0.448	868	0.85	> 256	0.808	6.76
ATN-1 (T-cell lymphoblastic leukaemia, suspension)	0.613	1.56	0.988	> 2000	0.935	> 16	0.982	> 10	0.953	> 20	0.988	> 1020	0.023	< 20	0.944	> 2560	0.474	6.81	0.984	> 1000	0.945	> 2560	0.198	172	0.662	43.8	0.689	2.04
NU-DUL-1 (B-cell lymphoma, suspension)	0.722	2.86	0.993	> 2000	0.959	> 16	0.993	> 10	0.889	15.1	0.992	> 1020	0.014	< 20	0.985	> 2560	0.573	12.2	0.992	> 1000	0.591	270	0.106	99	0.705	52.6	0.794	3.63
NAMALWA (Burkitt lymphoma, suspension)	0.894	10.8	0.991	> 2000	0.939	> 16	0.991	> 10	0.868	13.6	0.989	> 1020	0.016	< 20	0.991	> 2560	0.6	14.3					0.076	< 78.1	0.633	34.9	0.953	> 10
RPMI-6666 (Hodgkin lymphoma, suspension)	0.927	> 12.5	0.982	> 2000	0.981	> 16	0.981	> 10	0.903	> 20	0.848	1010	0.055	< 20	0.926	> 2560	0.528	9.71	0.825	767	0.673	538	0.209	141	0.657	48	0.886	> 10
MOLT-4 (lymphoblastic leukaemia, suspension)	0.858	7.39	0.987	> 2000	0.992	> 16	0.983	> 10	0.944	> 20	0.983	> 1020	0.015	< 20	0.97	> 2560	0.681	23					0.14	131	0.72	58.3	0.958	> 10
SW684 (fibrosarcoma, adherent)	0.768	6.94	0.983	> 2000	0.983	> 16	0.978	> 10	0.981	> 20	0.977	> 1020	0.76	2630	0.983	> 2560	0.975	> 128	0.98	> 1000	0.8	1970	0.963	> 20000	0.981	> 256		
OCI-AML3 (acute myeloid leukaemia, suspension)	0.906	> 12.5	0.991	> 2000	0.991	> 16	0.991	> 10	0.936	> 20	0.99	> 1020	0.047	< 20	0.991	> 2560	0.563	11.6					0.359	543	0.776	87.6	0.984	> 10
LOUCY (T-cell lymphoblastic leukaemia, suspension)	0.877	8.69	0.992	> 2000	0.99	> 16	0.991	> 10	0.908	18.8	0.977	> 1020	0.324	115	0.986	> 2560	0.518	8.89					0.092	83.7	0.721	58.7	0.914	> 10
ME-1 (acute myeloid leukaemia, suspension)	0.981	> 12.5	0.982	> 2000	0.989	> 16	0.984	> 10	0.923	> 20	0.982	> 1020	0.481	283	0.977	> 2560	0.928	> 128					0.374	545	0.935	> 256	0.985	> 10
LP-1 (myeloma, suspension)	0.992	> 12.5	0.991	> 2000	0.971	> 16	0.975	> 10	0.833	9.94	0.993	> 1020	0.025	< 20	0.833	1270	0.713	28.3					0.308	405	0.711	55.8	0.99	> 10
DMS-114 (small cell lung carcinoma, adherent)	0.793	6.68	0.969	> 2000	0.98	> 16	0.982	> 10	0.976	> 20	0.982	> 1020	0.041	< 20	0.972	> 2560	0.981	> 128					0.669	3990	0.906	> 256	0.944	> 10
CA46 (Burkitt lymphoma, suspension)	0.947	> 12.5	0.984	> 2000	0.935	> 16	0.985	> 10	0.824	13.1	0.978	> 1020	0.032	< 20	0.934	> 2560	0.632	19.1					0.075	< 78.1	0.922	> 256	0.963	> 10
MHH-NB-11 (neuroblastoma, adherent)	0.926	> 12.5	0.983	> 2000	0.983	> 16	0.975	> 10	0.969	> 20	0.98	> 1020	0.705	1290	0.945	> 2560	0.742	42.6			0.906	> 2560	0.212	161	0.818	163		

The IC50 comes from the fitted curve, where viability falls to half of the control; where the fit passes the top or lowest dose, that dose stands as a limit. For AUC the same curve is integrated over the 256-fold range of doses and scaled to a fraction; values near 1 show little effect. For some assays here: The top dose, if marked as inferred, was calculated from the reported fits. For some assays here: Drugs with an entry number were screened twice under separate entries, and the two screens often disagree.
